Measured values published in PubChem BioAssay (NCATS).
The list shows a part of the results. The main result of the screen is listed elsewhere. These columns were measured beside it and carry no call. The note in brackets gives the kind of curve behind each potency; many fits are weak.

Experiment: qHTS drug screen for cell cycle checkpoint inhibitors in PARPi-resistant BRCA-mutant ovarian cancer cell lines. (AID 1963452)
Details: PEO1/OlaR viability, CellTiter-Glo luminescence, 96 h
Summary of the method: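 PEO1, PEO4 and PEO1/OlaR ovarian cancer cells, 600 per well, exposed 96 h at 37C to a dilution series. Viability read by CellTiter-Glo luminescence, normalized to DMSO and empty wells; activity summarized as Z-AUC.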

[1] = measured here: PEO1 parental viability
Tags tell the direction and shape of the fitted curve.

With `COC(=O)N[C@H](C(=O)N1CCC[C@H]1c1ncc(-c2ccc(-c3ccc(-c4cnc([C@@H]5CCCN5C(=O)[C@@H](NC(=O)OC)C(C)C)[nH]4)cc3)cc2)[nH]1)C(C)C` the AC50 [1] was 21.9 µM [falling, single point] and the AC50 (measured here: PEO4 viability) was 15.5 µM [falling, single point].
With `COc1ccc(S(=O)(=O)N(CCO)c2ccccc2CN(C)C/C=C/c2ccc(Cl)cc2)cc1` the AC50 [1] was 6.92 µM [falling, partial curve] and the AC50 (measured here: PEO4 viability) was 15.5 µM [falling, partial curve].
In the case of `O=C(/C=C/c1cccc(S(=O)(=O)Nc2ccccc2)c1)NO`, the AC50 [1] is reported as 2.19 µM [falling, full curve] and the AC50 (measured here: PEO4 viability) is reported as 2.75 µM [falling, partial curve].
In the case of `Cc1nc2ccc(-n3ncc(C(=O)c4cc5ccccc5[nH]4)c3N)cc2[nH]1`, the AC50 [1] is reported as 6.16 µM [falling, partial curve] and the AC50 (measured here: PEO4 viability) is reported as 12.3 µM [falling, partial curve, poor fit].
In the case of `CCN1CCN(Cc2ccc(NC(=O)c3ccc(C)c(/C=C/c4cnc5[nH]ccc5c4OC)c3)cc2C(F)(F)F)CC1`, the AC50 [1] is reported as 6.16 µM [falling, partial curve] and the AC50 (measured here: PEO4 viability) is reported as 6.16 µM [falling, partial curve].
For `COc1ccc(CNc2nc(N(CCO)CCO)nc3c2ncn3C(C)C)cc1`, the AC50 [1] was 4.9 µM [falling, full curve] and the AC50 (measured here: PEO4 viability) was 6.92 µM [falling, partial curve].
In the case of `COc1ccc(COc2ccc(Cc3cnc(N)nc3N)cc2OC)cc1`, the AC50 [1] is reported as 15.5 µM [falling, single point] and the AC50 (measured here: PEO4 viability) is reported as 12.3 µM [falling, single point].
In the case of `Cc1cc(-c2cnn3c(NCC4CC(C)(O)C4)cc(Oc4cccnc4)nc23)ccc1C(=O)NC1CC1` (stereo not given), the AC50 [1] is reported as 0.0692 µM [falling, full curve, poor fit] and the AC50 (measured here: PEO4 viability) is reported as 1.23 µM [falling, partial curve, poor fit].
With `O=C1C[C@@H](c2ccc(O)cc2)Oc2cc(O)cc(O)c21` the AC50 [1] was 0.347 µM [rising, partial curve, poor fit] and the AC50 (measured here: PEO4 viability) was 1.74 µM [rising, partial curve, poor fit].
For `C[C@H](c1ccc(F)cc1CCCC(=O)O)N(c1cc(F)ccc1F)S(=O)(=O)c1ccc(Cl)cc1`, the AC50 [1] was 1.55 µM [rising, partial curve] and the AC50 (measured here: PEO4 viability) was 8.71 µM [falling, partial curve, poor fit].
For `O=C(Nc1ccc(-c2ccnc(Nc3ccc(N4CCOCC4)cc3)n2)cc1)[C@@H]1CCCN1`, the AC50 [1] was 12.3 µM [falling, single point] and the AC50 (measured here: PEO4 viability) was 24.5 µM [falling, single point].
For `O=C(Nc1ccc(OC(F)(F)Cl)cc1)c1cnc(N2CC[C@@H](O)C2)c(-c2ccn[nH]2)c1`, the AC50 [1] was 4.9 µM [falling, partial curve] and the AC50 (measured here: PEO4 viability) was 5.49 µM [falling, partial curve].
For `COc1ncc(-c2ccc3c(Nc4cc(Oc5cc(F)cc(F)c5)cc(C(=O)O)c4)c(S(=O)(=O)NC4CC4)cnc3c2)c(OC)n1`, the AC50 [1] was 2.75 µM [rising, partial curve, poor fit] and the AC50 (measured here: PEO4 viability) was 3.47 µM [rising, full curve, poor fit].
With `O=C1NC(=O)/C(=C/c2ccc3nccc(-c4ccncc4)c3c2)S1` the AC50 [1] was 1.55 µM [falling, full curve] and the AC50 (measured here: PEO4 viability) was 0.871 µM [falling, full curve].
With `COc1cc(C(=O)NC2CCN(C)CC2)c(F)cc1Nc1ncc2c(n1)N(C1CCCC1)CC(F)(F)C(=O)N2C` the AC50 [1] was 0.0436 µM [falling, full curve] and the AC50 (measured here: PEO4 viability) was 0.0692 µM [falling, full curve].
In the case of `NC(=O)/C(=C/n1cnc(-c2cc(C(F)(F)F)cc(C(F)(F)F)c2)n1)c1cncnc1`, the AC50 [1] is reported as 0.0616 µM [falling, full curve] and the AC50 (measured here: PEO4 viability) is reported as 0.0977 µM [falling, full curve].
In the case of `CC1=C(CO)C(=O)O[C@@H]([C@@H](C)[C@H]2CC[C@H]3[C@@H]4C[C@H]5O[C@]56[C@@H](O)C=CC(=O)[C@]6(C)[C@H]4CC[C@]23C)C1`, the AC50 [1] is reported as 1.1 µM [falling, full curve] and the AC50 (measured here: PEO4 viability) is reported as 0.616 µM [falling, full curve].
With `Cc1cc2cc(Oc3ccnc(Nc4cccc(CS(=O)(=O)NCCN(C)C)c4)n3)ccc2[nH]1` the AC50 [1] was 15.5 µM [falling, single point] and the AC50 (measured here: PEO4 viability) was 17.4 µM [falling, single point].
In the case of `C=CCc1cccc(/C=N/NC(=O)CN2CCN(Cc3ccccc3)CC2)c1O`, the AC50 [1] is reported as 13.8 µM [falling, partial curve] and the AC50 (measured here: PEO4 viability) is reported as 6.92 µM [falling, partial curve].
With `COCCNCc1ccc(-c2cc3nccc(Oc4ccc(NC(=O)C5(C(=O)Nc6ccc(F)cc6)CC5)cc4F)c3s2)nc1` the AC50 [1] was 4.9 µM [falling, full curve] and the AC50 (measured here: PEO4 viability) was 2.45 µM [falling, full curve].
With `C[C@@H](C(=O)Nc1ccc(Cl)cc1)C1CCC(c2ccnc3ccc(F)cc23)CC1` (stereo not given in full) the AC50 [1] was 12.3 µM [falling, partial curve] and the AC50 (measured here: PEO4 viability) was 13.8 µM [falling, partial curve, poor fit].
In the case of `COC(=O)Nc1cc(Nc2cc(NC3CC3)c3ncc(C#N)n3n2)c(Cl)c(N2CCN(C)CC2)c1`, the AC50 [1] is reported as 1.55 µM [falling, full curve] and the AC50 (measured here: PEO4 viability) is reported as 0.616 µM [falling, full curve].
With `N#C/C(=C1/Nc2ccccc2S1)c1ccnc(OCc2ccc(CN3CCOCC3)cc2)n1` the AC50 [1] was 19.5 µM [falling, single point] and the AC50 (measured here: PEO4 viability) was 12.3 µM [falling, partial curve].
With `Cc1cc(CS(=O)(=O)c2ccccc2)cc(OCc2ccc(CN3CCC[C@@H]3CO)cc2)c1` the AC50 [1] was 13.8 µM [falling, single point] and the AC50 (measured here: PEO4 viability) was 27.5 µM [falling, single point].
In the case of `COc1cc(N2CCC(N(C)C)CC2)ccc1Nc1ncc(Cl)c(Nc2ccccc2P(C)(C)=O)n1`, the AC50 [1] is reported as 0.436 µM [falling, full curve] and the AC50 (measured here: PEO4 viability) is reported as 0.275 µM [falling, full curve].
For `C/C(=N\NC(=S)N1CCC1)c1ccccn1`, the AC50 [1] was 1.74 µM [falling, partial curve] and the AC50 (measured here: PEO4 viability) was 0.0436 µM [falling, full curve].
In the case of `COc1cc(OC)cc(N(CCNC(C)C)c2ccc3ncc(-c4cnn(C)c4)nc3c2)c1`, the AC50 [1] is reported as 1.74 µM [falling, full curve] and the AC50 (measured here: PEO4 viability) is reported as 3.47 µM [falling, full curve].
With `C[C@@H]1CCNC(=O)c2cc3ccc(C(=O)Nc4nc5ccccc5n4CCCN(C)C)cc3n21` the AC50 [1] was 24.5 µM [falling, single point] and the AC50 (measured here: PEO4 viability) was 27.5 µM [falling, single point].
In the case of `COc1ccc(/C=C\c2cc(OC)c(OC)c(OC)c2)cc1O`, the AC50 [1] is reported as 0.0049 µM [falling, full curve] and the AC50 (measured here: PEO4 viability) is reported as 0.0062 µM [falling, full curve, poor fit].
With `Cc1cc(C(=O)Nc2cc(Nc3ccc4c(/C=C/c5ccccn5)n[nH]c4c3)ccc2F)n(C)n1` the AC50 [1] was 19.5 µM [falling, partial curve, poor fit] and the AC50 (measured here: PEO4 viability) was 15.5 µM [falling, partial curve].
With `Cc1ccc(-c2ccc3ncc4c(c3n2)n(C2CCN(C(=O)[C@H](C)O)CC2)c(=O)n4C)cn1` the AC50 [1] was 0.275 µM [falling, full curve] and the AC50 (measured here: PEO4 viability) was 0.0776 µM [falling, full curve].
With `Nc1ncccc1-c1nc2ccc(-c3ccccc3)nc2n1-c1ccc(C2(N)CCC2)cc1` the AC50 [1] was 19.5 µM [falling, partial curve] and the AC50 (measured here: PEO4 viability) was 19.5 µM [falling, partial curve].
In the case of `COc1c(C)c2c(c(O)c1C/C=C(\C)CCC(=O)OCCN1CCOCC1)C(=O)OC2`, the AC50 [1] is reported as 5.49 µM [falling, partial curve] and the AC50 (measured here: PEO4 viability) is reported as 7.76 µM [falling, partial curve].
In the case of `C[C@H](NC(=O)c1c(N)nn2cccnc12)c1cc2cccc(C#Cc3cnn(C)c3)c2c(=O)n1-c1ccccc1`, the AC50 [1] is reported as 13.4 µM [falling, partial curve, poor fit] and the AC50 (measured here: PEO4 viability) is reported as 6.74 µM [falling, partial curve, poor fit].
With `C#CC[C@H](c1nc2cc(Cl)ccc2c(=O)n1Nc1ccccc1)N(CCCN)C(=O)c1cccc(Cl)c1F` the AC50 [1] was 1.1 µM [falling, full curve] and the AC50 (measured here: PEO4 viability) was 1.1 µM [falling, full curve].
In the case of `CC(C)(C)c1[nH]cnc1/C=c1\[nH]c(=O)/c(=C/c2ccccc2)[nH]c1=O`, the AC50 [1] is reported as 0.616 µM [falling, partial curve] and the AC50 (measured here: PEO4 viability) is reported as 0.0389 µM [falling, full curve, poor fit].
In the case of `Cn1ncnc1[C@H]1c2n[nH]c(=O)c3cc(F)cc(c23)N[C@@H]1c1ccc(F)cc1`, the AC50 [1] is reported as 0.0977 µM [falling, full curve] and the AC50 (measured here: PEO4 viability) is reported as 6.16 µM [falling, partial curve].
For `CN(C(=O)CNC(=O)/C=C/c1cccc(Cl)c1)C1CCS(=O)(=O)CC1`, the AC50 [1] was 2.19 µM [falling, full curve] and the AC50 (measured here: PEO4 viability) was 0.977 µM [falling, full curve].
With `NC(=O)c1cnc(N[C@@H]2CCCC[C@@H]2N)nc1Nc1cccc(-n2nccn2)c1` the AC50 [1] was 12.3 µM [falling, partial curve] and the AC50 (measured here: PEO4 viability) was 19.5 µM [falling, partial curve].
With `CCn1c(=O)c(-c2ccn[nH]2)cc2c(C)nc(N)nc21` the AC50 [1] was 15.5 µM [falling, partial curve] and the AC50 (measured here: PEO4 viability) was 8.71 µM [falling, partial curve].
